# Test results taken from PubChem BioAssay (Tox21).
# “And” between values parts separate entries of the source, which are not always exact repeats. Identical values can stand only once. The inconclusive results got no clear call from the source; some entries with a clear call stand among them for comparison. A potency beside an inconclusive call is a rough fit, not a confirmed value. Some structures have more than one record in an assay (separate samples or runs), and their calls can disagree. The source made the active and inactive calls. Unless noted, calls come from the whole dose curve; as a rule, active = well fitted curve in the direction sought with a large enough effect in the repeat runs; inconclusive = weak or mixed curves; inactive = no such curve, though single readings can be large; an effect the other way counts as inactive or inconclusive.
# Experiments:
# [1] = qHTS assay to identify small molecule antagonists of the androgen receptor (AR) signaling pathway using the MDA cell line in the presence of 0.5 nM R1881 - cell viability counter screen (AID 1259242); settings: MDA-kb2 viability, CellTiter-Fluor protease fluorescence, 16 h; series mostly up to 92.4 µM; note: nearly all actives have a fitted effect of over 45% in size
# Method in brief: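 Viability of MDA-kb2 cells was multiplexed with the luciferase AR readout; after 16 hr with compounds and R1881 at 0.5 nM final, CellTiter-Fluor fluorescence was recorded.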
# [2] = qHTS assay to identify small molecule agonists of the sonic hedgehog signaling (Shh) pathway - cell viability counter screen (AID 1259366); settings: NIH/3T3 Gli1-Luc viability, CellTiter-Fluor, 24 h; series mostly up to 92.4 µM; note: nearly all actives have a fitted effect of over 50% in size
# Method in brief: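 NIH/3T3-derived Gli1-Luc reporter cells, 2,000 per well, received compound after 4 h and were treated about 23 h at 37C. Viability measured in the same wells by CellTiter-Fluor fluorescence after 1 h.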
# [3] = qHTS assay to identify small molecule antagonists of the sonic hedgehog signaling (Shh) pathway (AID 1259369; calls by dose curve; note: nearly all actives have a fitted effect of over 45% in size); settings: NIH/3T3 Gli1-Luc reporter, Shh antagonist, luminescence 24 h; series mostly up to 92.4 µM
# Method in brief: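 For antagonist detection, the reporter line received test compounds together with conditioned medium, incubated 24hr at 37 C, 5% CO2, then luminescence was recorded following 30min room-temperature luciferase reagent incubation.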
# [4] = qHTS assay to identify small molecule antagonists of the sonic hedgehog signaling (Shh) pathway - cell viability counter screen (AID 1259367); settings: NIH/3T3 Gli1-Luc viability, CellTiter-Fluor, 24 h; series mostly up to 92.4 µM; note: nearly all actives have a fitted effect of over 55% in size
# Method in brief: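 Cells: 3T3 Gli1-Luc, 2,000/well, 4 hr pre-incubation. Compounds in DMSO, then conditioned medium. Incubation 24 hr, 37C, 5% CO2. CellTiter-Fluor at 23 hr, 1 hr, fluorescence.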
# [5] = molecular target: Estrogen receptor (Homo sapiens) (UniProt P03372); test: qHTS assay to identify small molecule antagonists of the estrogen receptor alpha (ER-alpha) signaling pathway using the BG1 cell line in the presence of 0.1 nM 17-beta-estradiol (AID 1259244); settings: VM7Luc4E2 (BG1) ERE-luciferase, antagonist mode, 0.1 nM E2, 22 h; series mostly up to 92.4 µM; note: nearly all actives have a fitted effect of over 50% in size
# Sequence of UniProt P03372 (P03372 whole entry, looked up): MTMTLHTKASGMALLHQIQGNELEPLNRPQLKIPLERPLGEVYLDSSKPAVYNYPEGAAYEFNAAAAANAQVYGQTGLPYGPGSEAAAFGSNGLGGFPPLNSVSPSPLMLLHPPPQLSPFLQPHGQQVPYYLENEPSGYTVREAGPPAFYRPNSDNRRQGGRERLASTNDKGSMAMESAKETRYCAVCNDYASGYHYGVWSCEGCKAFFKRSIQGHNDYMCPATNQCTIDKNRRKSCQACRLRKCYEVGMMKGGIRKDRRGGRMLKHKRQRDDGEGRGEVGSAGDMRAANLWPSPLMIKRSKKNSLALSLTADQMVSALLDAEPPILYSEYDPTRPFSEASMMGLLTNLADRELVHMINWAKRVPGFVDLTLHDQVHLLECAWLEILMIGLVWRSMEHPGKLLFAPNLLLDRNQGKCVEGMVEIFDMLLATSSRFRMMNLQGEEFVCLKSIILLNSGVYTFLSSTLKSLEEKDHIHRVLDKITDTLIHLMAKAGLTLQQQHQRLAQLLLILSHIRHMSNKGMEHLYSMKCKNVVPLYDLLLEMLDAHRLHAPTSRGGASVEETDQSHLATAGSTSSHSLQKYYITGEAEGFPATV
# Method in brief: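 Estradiol at 0.1 nM (final) stimulates the endogenous ER-alpha of VM7Luc4E2 cells carrying an ERE-driven luciferase; compounds are co-incubated 22 h at 37C and luciferase output quantified by luminescence.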
# Potency is the fitted concentration of half-maximal effect; tags give direction and shape of the fitted curve.
Compound,Potency [1],Potency [2],Potency [3],Potency [4],Potency [5]
CNCCC(Oc1ccc(C(F)(F)F)cc1)c1ccccc1 (stereo not given),"inconclusive: 67.7 µM [cytotoxic, single point] and active: 29.8 µM",active: 60.3 µM and active: 29.8 µM,"inconclusive: 29.8 µM [inhibitor, partial curve, poor fit]",–,–
CCCCCCCC[N+](CCCCCCCC)(CCCCCCCC)CCCCCCCC,active: 9.67 µM,–,–,active: 27.3 µM,–
CC(C)(O)C#CC(C)(C)O,inactive,–,"inconclusive: 0.555 µM [inhibitor, single point]",–,–
CCN(Cc1c(F)cccc1Cl)c1c([N+](=O)[O-])cc(C(F)(F)F)cc1[N+](=O)[O-],–,–,–,–,"inconclusive: 68.6 µM [inhibitor, partial curve, poor fit]"
N=C1N=C(N)c2ccccc21,–,inconclusive: 68.6 µM [cytotoxic],active: 8.63 µM,"inconclusive: 30.6 µM [cytotoxic, partial curve]","inconclusive: 77 µM [inhibitor, single point]"
OC[C@H]1O[C@@H]2O[C@H]3[C@H](O)[C@@H](O)[C@@H](O[C@H]4[C@H](O)[C@@H](O)[C@@H](O[C@H]5[C@H](O)[C@@H](O)[C@@H](O[C@H]6[C@H](O)[C@@H](O)[C@@H](O[C@H]7[C@H](O)[C@@H](O)[C@@H](O[C@H]1[C@H](O)[C@H]2O)O[C@@H]7CO)O[C@@H]6CO)O[C@@H]5CO)O[C@@H]4CO)O[C@@H]3CO,–,"inconclusive: 32.4 µM [cytotoxic, single point]",inactive and active: 9.13 µM,–,inactive
